# According to PubChem BioAssay AID624417 (National Center for Advancing Translational Sciences (NCATS), 2012):
# About 6,400 (1.6%) of roughly 410,000 compounds were called active. The inconclusive results got no clear call from the source; some entries with a clear call stand among them for comparison. Calls follow the shape of the dose curve; as a rule, active = well fitted inhibition curve with a large enough effect; inconclusive = small, poorly fitted or top-dose-only effect; inactive = no such curve, though single readings can be large or run the other way. Potencies of inconclusive entries are left out as doubtful fits.
# Molecular target: Glucagon-like peptide 1 receptor (Homo sapiens) (UniProt P43220)
# UniProt P43220, sequence (P43220 whole entry, looked up): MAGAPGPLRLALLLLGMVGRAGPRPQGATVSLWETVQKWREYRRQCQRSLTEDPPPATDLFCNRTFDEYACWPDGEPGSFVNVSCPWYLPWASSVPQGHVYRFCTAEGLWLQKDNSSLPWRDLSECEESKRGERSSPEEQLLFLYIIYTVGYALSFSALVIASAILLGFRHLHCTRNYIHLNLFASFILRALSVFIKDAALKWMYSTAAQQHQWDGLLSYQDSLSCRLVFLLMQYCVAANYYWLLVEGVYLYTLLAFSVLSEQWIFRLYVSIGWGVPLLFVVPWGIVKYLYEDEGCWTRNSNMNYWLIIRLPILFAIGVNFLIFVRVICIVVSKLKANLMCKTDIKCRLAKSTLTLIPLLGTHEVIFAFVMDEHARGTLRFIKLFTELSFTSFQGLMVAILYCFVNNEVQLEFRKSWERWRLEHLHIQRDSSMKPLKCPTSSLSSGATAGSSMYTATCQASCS
# Assay: qHTS of GLP-1 Receptor Inverse Agonists (Inhibition Mode); also: nearly all actives have a fitted effect of over 55% in size
# Conditions: HEK293 GLP-1R CRE-luciferase, luminescence, 24 h, GLP-1R form is constitutively active; activity change, negative = inhibition: at 38.3 µM (top of the series) unless noted
# Summary of the method: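 qHTS in 1536-well format: reporter HEK293 cells expressing constitutive GLP-1R activity in DMEM + 10% Nu serum, 24 hr with compounds at 37 deg C, luminescence read after 12 min with detection reagent.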
# % is scaled to controls: 0 for no effect and ±100 for the full control effect; potency is read from the fitted curve at half-maximal effect; tags tell the direction and shape of the fitted curve.
Compound,"activity change, negative = inhibition",Potency
COc1cccc2cc(CC(=O)c3ccccc3)c(=O)oc12,inactive: 20.1%,
OCCn1c(-c2ccc3c(c2)OCO3)csc1=Nc1ccccc1,,active: 3.55 µM
O=C(COc1ccc(Oc2ccccc2)cc1)NCc1cn2ccccc2n1,,"inconclusive [inhibitor, partial curve]"
Cc1ccc(C)c(CN2CCC(CNC(=O)CCc3nnc4ccc(N5CCC(C)CC5)nn34)CC2)c1,,"inconclusive [inhibitor, single point]"
COc1cc(O)c(C(CC(=O)N2CCN(c3ccccc3)CC2)c2ccc(N(C)C)cc2)c(OC)c1 (configuration not stated),,"inconclusive [inhibitor, partial curve, poor fit]"
O=c1/c(=C\c2ccc(O)cc2)sc2n1C(c1ccccc1)C(c1ccccc1)=NN=2 (configuration not stated),,"inconclusive [inhibitor, partial curve, poor fit]"
O=c1[nH]c(-c2ccc(O)cc2)nc2scc(-c3cccs3)c12,inactive: 37.2%,
COc1ccc(/C(C)=N/Nc2ncc(Cl)cc2Cl)c(O)c1,,"inconclusive [inhibitor, full curve, poor fit]"
CNCC/C=C1/c2ccccc2CSc2ccccc21,,"inconclusive [inhibitor, partial curve, poor fit]"
Cc1c(C(=O)N2CCc3ccccc3C2)oc2ccc(Br)cc12,,"inconclusive [inhibitor, single point]"
CC(C)c1c(C(=O)N/N=C/c2ccc(Cl)cc2Cl)nnn1-c1nonc1N,,"inconclusive [inhibitor, partial curve, poor fit]"
CC(=O)c1sc(N/N=C\c2ccccc2O)nc1C,,"inconclusive [inhibitor, partial curve, poor fit]"
COc1ccccc1N1CCN(C(=O)c2cccs2)CC1,inactive: -5.24%,
Cc1ccccc1CN1[C@@H](CC2CCCCC2)COCCS1(=O)=O,,"inconclusive [inhibitor, partial curve, poor fit]"
COC(=O)c1c(-c2ccccc2)[nH]c(-c2nccc3ccccc23)c1C(=O)OC,,"inconclusive [inhibitor, single point]"
Cc1ccc(C2C(C=Nc3c(C)n(C)n(-c4ccccc4)c3=O)=C(c3ccccc3)Oc3ccccc32)cc1 (configuration not stated),,active: 3.98 µM
COc1ccc(/C=N/NC(=O)c2[nH]nc3c2CCc2ccccc2-3)cc1OC,,"inconclusive [inhibitor, single point]"
O=C(CCc1ccc(S(=O)(=O)NC2CCCCC2)cc1)Nc1ccccc1,,"inconclusive [inhibitor, single point]"
CCN(CC)C(=O)CCc1nnc(Cc2cccc(C(F)(F)F)c2)o1,inactive: -5.06%,
CCOc1ccccc1NC(=O)CN(C)S(=O)(=O)c1cccc2nsnc12,,"inconclusive [inhibitor, partial curve, poor fit]"
O=C(CSc1nccn1Cc1ccco1)Nc1cc(C(F)(F)F)ccc1Cl,,"inconclusive [inhibitor, single point]"

Compound,"activity change, negative = inhibition",Potency
Cc1cc(C)nc(-n2nc(C)c(Sc3ccc(F)cc3)c2N)n1,,"inconclusive [inhibitor, full curve, poor fit]"
CCOC(=O)C1CCCN(C(=O)Cn2sc3nc(C)cc(C)c3c2=O)C1 (configuration not stated),,"inconclusive [inhibitor, single point]"
Cc1ccc(N2CCN(C(=O)c3cnn(-c4ccc(C)c(C)c4)c3C3CCNCC3)CC2)c(C)c1,,"inconclusive [inhibitor, partial curve, poor fit]"
O=C(N/N=C/c1ccccn1)c1[nH]c2ccc([N+](=O)[O-])cc2c1-c1ccccc1,inactive: -14.7% [at 7.66 µM],
Cc1cc(C(=O)CN2C(=O)C(=O)N(Cc3ccccc3)C2=O)c(C)n1CC1COc2ccccc2O1 (configuration not stated),,"inconclusive [inhibitor, single point]"
COc1cc(OC)c(C(=O)/C=C/c2ccc(OCc3ccccc3)c(OC)c2)c(OC)c1,,"inconclusive [inhibitor, partial curve, poor fit]"
COc1ccc(NC(=O)CN(C)C(=O)c2cn(-c3ccccc3)nc2-c2cccs2)cc1,,active: 11.2 µM
Cc1cc(Br)ccc1S(=O)(=O)NCc1ccccc1,,"inconclusive [inhibitor, single point]"
CC(C)(C)NS(=O)(=O)c1ccc(CCC(=O)Nc2cc(Cl)ccc2Oc2ccccc2)cc1,,"inconclusive [inhibitor, partial curve, poor fit]"
CCN(CC)CCCn1c(=S)[nH]c2ncccc2c1=O,inactive: 3.14%,
O=C(OC(C(=O)Nc1cc(Cl)cc(Cl)c1)c1ccccc1)C1=COCCO1 (configuration not stated),,"inconclusive [inhibitor, single point]"
CCCCCNC(=O)c1ccc2c(c1)ncn2-c1ccc(OC)cc1,,"inconclusive [inhibitor, single point]"
CCOc1cc(CNC(=O)c2ccc3c(c2)N(C)C(=O)C2CCCCN32)ccc1OC (configuration not stated),inactive: 27.3%,
Cc1cnc(NC(=O)c2ccccn2)s1,,"inconclusive [inhibitor, single point]"
COc1ccccc1NC(=O)c1cn(-c2ccccc2)nc1-c1ccccc1,,"inconclusive [inhibitor, single point]"
Cc1ccc(-n2ncc(C(=O)Nc3cc(Cl)ccc3Cl)c2C2CCNCC2)cc1,,active: 7.08 µM
O=C(NCCc1ccccc1)C1CCC(CNS(=O)(=O)c2cccs2)CC1 (configuration not stated),,"inconclusive [inhibitor, single point]"
FC(F)(F)c1cc(-c2ccccc2)nc(N2CCOCC2)n1,,"inconclusive [inhibitor, partial curve, poor fit]"
COc1ccc(CCN(C(=S)Nc2ccccc2)C2CC(=O)N(c3ccccc3)C2=O)cc1 (configuration not stated),,"inconclusive [inhibitor, partial curve, poor fit]"
COc1ccc(N2CCN(C(=O)CNS(=O)(=O)c3ccc(Br)s3)CC2)cc1,,"inconclusive [inhibitor, single point]"
N#CC(c1cccc(Cl)c1)c1ccc2c(C(F)(F)F)cc(C(F)(F)F)nc2n1 (configuration not stated),,active: 3.16 µM

Compound,"activity change, negative = inhibition",Potency
Cc1cccc(N2CCN(C(=O)C3(S(=O)(=O)c4ccc(Cl)cc4)CC3)CC2)c1C,,"inconclusive [inhibitor, partial curve, poor fit]"
COCCCN=C1NN=C(c2cc(C)n(Cc3ccco3)c2C)CS1,,"inconclusive [inhibitor, full curve, poor fit]"
Cc1ccccc1NC(=O)c1ccc2ccccc2c1,,"inconclusive [inhibitor, single point]"
CCc1ccc(NC(=O)c2ccc3nc(N)sc3c2)cc1,,"inconclusive [inhibitor, single point]"
N#Cc1cccc(NC(=O)CCC2CCCC2)c1,,"inconclusive [inhibitor, single point]"
NC(=O)NC1CCCc2c1[nH]c1ccc(Cl)cc21 (configuration not stated),,"inconclusive [inhibitor, partial curve, poor fit]"
C#CCOCCOCCOCCNc1nc(N2CCN(C(=O)CCCCCCCCCCNC(=O)[C@H](CCCCN)n3cc(C)nn3)CC2)nc(N2CCN(C(=O)CCCCCCCCCCNC(=O)[C@@H]([C@H](C)O)n3cc(C)nn3)CC2)n1,,"inconclusive [inhibitor, single point]"
COc1cccc(-c2cc(NC=O)c3ncc(-c4ccc(C(C)=O)cc4)n3c2)c1,,"inconclusive [inhibitor, full curve]"
CC(C)(C)NC(=O)C(c1ccncc1)N(Cc1cccs1)C(=O)Cn1nnc(-c2ccc(F)cc2)n1 (configuration not stated),,"inconclusive [inhibitor, partial curve, poor fit]"
Cc1ccc(S(=O)(=O)N(C)CC(=O)Nc2nc3ccccc3s2)cc1,,"inconclusive [inhibitor, single point]"
CCOC(=O)c1sc(=S)n(Cc2ccccc2)c1C,,active: 8.91 µM
CN(C)C(CNC(=O)c1ccccc1OCc1ccc(Cl)cc1)c1ccco1 (configuration not stated),,"inconclusive [inhibitor, single point]"
O=C(Cn1c(=O)n2nc(-c3cccc(F)c3)nc2c2ccccc21)N1CCN(c2ccc(F)cc2)CC1,inactive: 10.2%,
CCCCn1c(=N)n(CCOc2ccc(C)cc2)c2ccccc21,,"inconclusive [inhibitor, single point]"
c1ccc(N2CCN(c3nc(-c4ccccn4)nc4ccccc34)CC2)cc1,,"inconclusive [inhibitor, full curve, poor fit]"
COc1cc(/C=C/C(=O)N2c3ccccc3Sc3ccc(C(F)(F)F)cc32)cc(OC)c1OC,,"inconclusive [inhibitor, single point]"
COc1ccc(/C=C/C(=O)Nc2cc(C)nn2-c2nc3ccccc3[nH]2)cc1,,"inconclusive [inhibitor, partial curve, poor fit]"
O=c1cc(N2CCCCC2)c(-c2ccccc2)nn1Cc1c(Cl)cccc1Cl,,"inconclusive [inhibitor, partial curve, poor fit]"
CN(CC(=O)Nc1ccc(Cl)c(C(F)(F)F)c1)C(=O)C1CC(=O)N(C2CCCC2)C1 (configuration not stated),,"inconclusive [inhibitor, single point]"
Cc1ccc(N(C)C(=O)CN2C(=O)CCc3cc(S(=O)(=O)N4CCOCC4)ccc32)cc1,inactive: 12.8%,
